The whole screen tested about 360,000 compounds, of which about 7,500 (2.1%) were called active. Inconclusive results, whose numbers are uncertain, are shown with a selection of clear calls. Calls come from the whole dose curve; as a rule, active = well fitted cell-killing curve with a large enough effect; inconclusive = small, poorly fitted or top-dose-only effect, or effect the other way, or another doubt; inactive = no such curve, though single readings can be large or run the other way. Potencies of inconclusive entries are left out as doubtful fits.
Experiment: qHTS for induction of synthetic lethality in tumor cells producing 2HG: qHTS for the HT-1080-IDH1KD cell line;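 for activity, negative = toxicity: 0% = DMSO wells and -100% = cell-free medium wells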
Conditions: HT-1080 IDH1 knockdown viability, ATP luminescence, 48 h; activity, negative = toxicity: at 46.1 µM (top of the series) unless noted
How it was run: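 Knockdown cells (IDH1KD HT-1080) received compounds 2 h after plating at 750 cells/well and were kept 48 h at 37 °C in 5% FBS RPMI. A CellTiter-Glo luminescence read gave % activity for curve fitting.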
Potency is the fitted concentration of half-maximal effect; tags give direction and shape of the fitted curve.

Structure (SMILES)	Potency	activity, negative = toxicity
Cc1nn(S(=O)(=O)c2cccs2)c(C)c1Sc1ccc([N+](=O)[O-])cc1	inconclusive [cytotoxic, partial curve]	–
CCOc1ccc(NC(=O)NNC(=O)c2cc3ccccc3cc2O)cc1	–	inactive: -0.0515%
CCN(CC)CCNc1nc(-c2ccc(OC)cc2)c(-c2ccc(OC)cc2)s1	inconclusive [cytotoxic, single point]	–
CC(C)(C)c1cc(NCCCn2ccnc2)n2ncc(-c3ccccc3)c2n1	active: 16.4 µM	–
c1csc(CNc2nc(-c3cccs3)nc3ccccc23)c1	inconclusive [cytotoxic, single point]	–
CCCN(C)C[C@@H]1Oc2ncc(Br)cc2C(=O)N([C@@H](C)CO)C[C@H]1C	–	inactive: 15.4%
CCOC(=O)C1=C(c2ccc(OC)cc2)C(=O)c2ccccc2C1=O	active: 7.31 µM	–
COc1ccc(OC)c(CCNC(=O)C(C)n2nc(C)c3c(C)n(-c4ccc(C)cc4)nc3c2=O)c1 (stereo not drawn)	active: 20.6 µM	–
CN(C)CCCn1cnc2c(c1=N)C(c1ccccc1)c1ccc3ccccc3c1O2 (stereo not drawn)	inconclusive [cytotoxic, single point]	–
CC(=O)Nc1ccc2nc(NC(=O)CCc3ccccc3)sc2c1	–	inactive: 5.63%
COc1ccc(C(=O)Nc2cc(C(=O)NCCc3ccccc3)ccc2Cl)cc1	inconclusive [cytotoxic, partial curve]	–
C/C(CCC12CC3CC(CC(C3)C1)C2)=N\NC(N)=S	inconclusive [cytotoxic, single point]	–
Cc1ccc(S(=O)(=O)Oc2ccccc2[N+](=O)[O-])cc1	–	inactive: -4.53%
COc1ccc(-c2[nH]ncc2/C=N\NC(=O)c2ccc(C(C)(C)C)cc2)cc1OC	–	inconclusive: -38.2% [cytotoxic]
O=C(Nc1ccc(Cl)cn1)c1ccc(Oc2ccccc2)cc1	–	inactive: -2.7%
C/C(=N\Nc1ncc(Cl)cc1Cl)c1ccccn1	active: 0.231 µM	–
Cc1ccc(C(=O)Nc2cc3c(cc2Cl)OCCCO3)cc1	–	inactive: 7.17%
O=C(NNC(=O)c1ccc2ccccc2c1O)c1ccccc1Cl	inconclusive [cytotoxic, single point]	–
COc1ccc(-c2csc3nc(-c4cccnc4)nc(Cl)c23)cc1OC	inconclusive [cytotoxic, partial curve]	–
COc1ccccc1NC1=C(NC(C)=O)C(=O)c2ccccc2C1=O	inconclusive [cytotoxic, single point]	–
COc1ccc(S(=O)(=O)n2nc(OC(=O)c3c(-c4ccccc4Cl)noc3C)cc2N)cc1	inconclusive [cytotoxic, single point]	–
COC(=O)c1ccc(NCN2C(=O)C3C4CCC(C4)C3C2=O)cc1 (stereo not drawn)	–	inactive: 1.6%
CCC(C)c1ccc(O)c(NC(=O)c2cncc(Br)c2)c1 (stereo not drawn)	inconclusive [cytotoxic, single point]	–
C=CCn1c(=O)c2c3c(sc2n2c(Nc4ccccc4)nnc12)CCCC3	–	inactive: -3.95%
O=[N+]([O-])c1ccc(-c2cc(-c3ccncc3)nc3ccc4ccccc4c23)cc1	–	inconclusive: 10.7%

Structure (SMILES)	Potency	activity, negative = toxicity
Cc1ccc(/C=N/NC(=O)c2ccc3ccccc3c2)s1	active: 2.31 µM	–
COCCNc1nc2sc3c(c2c(=O)n1Cc1ccco1)CCCCC3	inconclusive [cytotoxic, single point]	–
Cc1c(C)n(C)c2ccc(C(=O)NCCN3CCOCC3)cc12	–	inactive: 3.25%
COc1cccc(NC(=S)NNC(=O)c2c([N+](=O)[O-])c(C)nn2C)c1	active: 7.94 µM	–
CCOC(=O)C1=CCC(c2ccc(CC)cc2)N(S(=O)(=O)c2ccc(C)cc2)C1 (stereo not drawn)	inconclusive [cytotoxic, single point]	–
Cc1cc(C)nc(/N=C(\N)Nc2ccccc2-c2ccccc2)n1	inconclusive [cytotoxic, single point]	–
CC(C)c1ccc(/C=N/NC(=O)c2nnn(-c3nonc3N)c2CN2CCOCC2)cc1	inconclusive [cytotoxic, single point]	–
CCCC(CC)Sc1nc2c([nH]1)c(=S)n(C)c(=O)n2C (stereo not drawn)	–	inactive: -12.1%
S=C1NCC(c2ccccc2)S1 (stereo not drawn)	–	inactive: 0.476%
Cc1ccc(-c2[nH]c3ccccc3c2C(C[N+](=O)[O-])c2ccco2)cc1 (stereo not drawn)	inconclusive [cytotoxic, single point]	–
CCN(C(=O)CSc1nnc(-c2ccccc2OC)n1N)c1c(N)n(Cc2ccccc2)c(=O)[nH]c1=O	–	inactive: -3.27%
O=C(CCCCCN1C(=O)CCC1=O)Nc1ccc(Cl)c(C(F)(F)F)c1	inconclusive [cytotoxic, single point]	–
COCC(=O)N(C)C[C@@H]1Oc2cc(Br)ccc2S(=O)(=O)N([C@H](C)CO)C[C@H]1C	–	inactive: 6.45%
CCC1(O)CCCC2C3CCC4CC(=O)CCC4(C)C3C(=O)CC21C (stereo not drawn)	–	inactive: -3%
C=CCc1c(C)nc2c(OC)cccc2c1Cl	–	inactive: -2.29%
COc1ccc(C2Nc3ccccc3NC3=C2C(=O)CC(C)(C)C3)cc1O (stereo not drawn)	–	inconclusive: -31.4% [cytotoxic]
COC(=O)c1c[nH]c2c1-c1cc(C(=O)OCc3ccccc3)n(S(=O)(=O)c3ccc(C)cc3)c1C(=O)C2=O	active: 20.6 µM	–
COc1ccc(N2CCN(c3cc(C)nc4ccc(OC)cc34)CC2)cc1	inconclusive [cytotoxic, partial curve]	–
O=C(COc1ncnc2sccc12)N1CCN(S(=O)(=O)c2ccc(Cl)cc2)CC1	inconclusive [cytotoxic, single point]	–
O=C(Nc1ccc(N2CCOCC2)cc1)c1ccc(Cl)c(S(=O)(=O)N2CCCC2)c1	inconclusive [cytotoxic, single point]	–
COc1cc(-c2noc(C)c2-c2ccc(N(C)C)nc2)cc(OC)c1OC	active: 0.184 µM	–
Cc1ccc2[nH]c(=O)c(-c3nc4ccccn4c3NCc3ccco3)cc2c1	inconclusive [cytotoxic, single point]	–
COc1cccc(CNc2nc(NCc3cccs3)nc3ccsc23)c1	active: 23.1 µM	–
CCC(CC)C(=O)Nc1ccc(C)c(O)c1	inconclusive [rising, partial curve, poor fit]	–
Cc1cc(NC(=O)c2ccc(Cl)cc2)n(CCOC(=O)c2ccc(Cl)cc2)n1	–	inactive: -24.4%

Structure (SMILES)	Potency	activity, negative = toxicity
C=CCNC(=S)/N=c1/ccccn1Cc1ccccc1	inconclusive [cytotoxic, single point]	–
CN(C)c1ccc(/C=N/NC(=O)CN(c2ccccc2Cl)S(C)(=O)=O)cc1Br	inconclusive [cytotoxic, single point]	–
CC1(CCc2ccccc2)NC(=O)N(Cc2nnc(-c3ccccc3Br)o2)C1=O (stereo not drawn)	–	inactive: -3.52% [at 9.24 µM]
Cc1cccc(NC(=O)CNC(=O)Cn2ncc(Cl)c(Cl)c2=O)c1C	active: 7.31 µM	–
N/C(=N\OC(=O)C(c1ccccc1)c1ccccc1)c1ccccn1	inconclusive [cytotoxic, single point]	–
O=c1[nH]c(-c2ccccn2)nc(C(F)(F)F)c1Br	inconclusive [cytotoxic, partial curve]	–
Clc1ccc(-c2nnc(-c3ccc(Br)cc3)c(N3CCSCC3)n2)cc1	–	inactive: 0.531%
Cc1c(C(=O)NCCSCc2c(F)cccc2Cl)cnn1-c1ccc(Cl)cc1	inconclusive [cytotoxic, single point]	–
COC(=O)c1ccc(C(C(=O)NCc2ccccc2)N(Cc2cccs2)C(=O)c2cnccn2)cc1 (stereo not drawn)	–	inactive: -17%
CCCCCOc1ccc2oc(=O)c3c(c2c1)CCCN3C(=O)CN1CCCC(C(=O)OCC)C1 (stereo not drawn)	active: 23.1 µM	–
COc1ccc(NC(=O)c2ccccc2NS(=O)(=O)c2ccc(CNC(C)=O)cc2)c(OC)c1	inconclusive [cytotoxic, single point]	–
COc1ccc(CNCC(O)(c2ccccc2)c2ccc(F)cc2)cc1 (stereo not drawn)	inconclusive [cytotoxic, partial curve, poor fit]	–
COc1cccc2c1O/C(=N\O)C(C(=O)Nc1cccc(Br)c1)C2 (stereo not drawn)	–	inactive: 0.393%
CN(C)/N=C/c1ccc(Sc2ccc([N+](=O)[O-])cc2[N+](=O)[O-])o1	inconclusive [rising, single point]	–
Cc1ccc(-c2cc3nc(-c4ccccc4)cc(NCCCO)n3n2)cc1	inconclusive [cytotoxic, single point]	–
CCCCCCCOC(=O)C[N+](C)(C)CCOC1CC2CCC1(C)C2(C)C (stereo not drawn)	active: 18.4 µM	–
C=CCn1c(C)cc(C(=O)CSc2nnc(NCc3ccccc3)s2)c1C	inconclusive [cytotoxic, single point]	–
CC1(C(=O)NCc2ccco2)Cc2c(-c3ccc4c(c3)OCO4)ccnc2O1 (stereo not drawn)	inconclusive [cytotoxic, full curve]	–
COc1ccc(-n2cc(CNCCc3cnc[nH]3)c(-c3cccc(F)c3)n2)cc1	inconclusive [cytotoxic, partial curve]	–
CCc1nnc(NC(=O)c2nc(S(=O)(=O)Cc3ccccc3)ncc2Cl)s1	active: 7.31 µM	–
CN1c2ccsc2C(O)=C(C(=S)Nc2ccc(F)c(Cl)c2)S1(=O)=O	inconclusive [cytotoxic, single point]	–
COc1cccc(-c2nc(N)nc(SC)c2C#N)c1	–	inactive: -0.437%
COc1cccc(Cn2c(NCC(C)C)nc3c2c(=O)n(C)c(=O)n3C)c1	inconclusive [cytotoxic, single point]	–
